In all, about 3,200 compounds went through this assay and about 75 (2%) showed an effect of 50% or more. The list shows a part of the results.
Tested on: T1, S. aureus MSSA476
T1 construct: MSSA476
Set-up: species or system S. aureus MSSA476 (TSB) or V. cholerae SAD30 (LB); 384-well bacterial growth screen at 25 uM, OD600 relative to DMSO control
Settings: relative growth, OD600, TSB; 25 µM; inhibitor

| SMILES | % of control remaining |
| --- | --- |
| CC(Cl)C(=O)NC1(C(=O)Nc2ccccc2)CC1 (centres unmarked) [7-K14, 1-(2-chloropropanamido)-N-phenylcyclopropane-1-carboxamide] | 101.413% |
| C=CC(=O)N(Cc1cn(C)nc1C)c1ccc2c(c1)OCCO2 [1-P13, N-(2,3-dihydro-1,4-benzodioxin-6-yl)-N-[(1,3-dimethyl-1H-pyrazol-4-yl)methyl]prop-2-enamide] | 87.9121% |
| Cc1c(C#N)c(NC(=O)CCl)n(Cc2ccco2)c1C [4-D09, 2-chloro-N-{3-cyano-1-[(furan-2-yl)methyl]-4,5-dimethyl-1H-pyrrol-2-yl}acetamide] | 96.0457% |
| C=CC(=O)Nc1sc2c(c1C(N)=O)CCCCC2 [1-F21, 2-(prop-2-enamido)-4H,5H,6H,7H,8H-cyclohepta[b]thiophene-3-carboxamide] | 84.7473% |
| Cc1nn(CC(F)(F)F)c(C)c1C1COCCN1C(=O)CCl (centres unmarked) [5-J13, 2-chloro-1-{3-[3,5-dimethyl-1-(2,2,2-trifluoroethyl)-1H-pyrazol-4-yl]morpholin-4-yl}ethan-1-one] | 111.475% |
| C=CC(=O)NCC1(S(=O)(=O)CC)CC1 [3-O13, N-{[1-(ethanesulfonyl)cyclopropyl]methyl}prop-2-enamide] | 91.2495% |
| C=CC(=O)Nc1cc(C(C)C)ccc1C(C)C [1-I21, N-[2,5-bis(propan-2-yl)phenyl]prop-2-enamide] | 94.2418% |
| CCOc1ccccc1C=C(C#N)C(=O)Nc1ccc(Cl)cc1 [8-B09, N-(4-chlorophenyl)-2-cyano-3-(2-ethoxyphenyl)prop-2-enamide] | 87.3029% |
| Cc1cccc(NC(=O)NC(=O)CCl)c1C [4-D21, 3-(2-chloroacetyl)-1-(2,3-dimethylphenyl)urea] | 117.77% |
| C=CC(=O)N1CCC(c2nc3ccccc3o2)CC1 [1-N18, 1-[4-(1,3-benzoxazol-2-yl)piperidin-1-yl]prop-2-en-1-one] | 131.516% |
| COc1ccc(C(NC(=O)CCl)C(C)C)cc1 (centres unmarked) [4-A13, 2-chloro-N-[1-(4-methoxyphenyl)-2-methylpropyl]acetamide] | 128.442% |
| O=C1C=CC(=O)N1c1ccc(F)cc1 [10-M10, 1-(4-fluorophenyl)-2,5-dihydro-1H-pyrrole-2,5-dione] | 118.75% |
| COc1ccc(NC(=O)C(C#N)=Cc2cnc3c(C)cccn23)cc1 [9-L03, 2-cyano-N-(4-methoxyphenyl)-3-{8-methylimidazo[1,2-a]pyridin-3-yl}prop-2-enamide] | 127.041% |
| C=CC(=O)NCCC1=CCCCCC1 [1-P21, N-[2-(cyclohept-1-en-1-yl)ethyl]prop-2-enamide] | 79.8242% |
| O=C(CCc1ccccc1)NC1CCN(C(=O)CCl)CC1 [5-L08, N-[1-(2-chloroacetyl)piperidin-4-yl]-3-phenylpropanamide] | 103.825% |
| CC(NC(=O)C(C#N)=Cc1ccc(C(F)(F)F)cc1)c1ccccc1 (centres unmarked) [9-L21, 2-cyano-N-(1-phenylethyl)-3-[4-(trifluoromethyl)phenyl]prop-2-enamide] | 87.4906% |

| SMILES | % of control remaining |
| --- | --- |
| COc1cc(C=C(C#N)C(N)=O)cc(OC)c1OC [9-K13, 2-cyano-3-(3,4,5-trimethoxyphenyl)prop-2-enamide] | 97.0787% |
| O=C(CCl)Nc1cc(-c2ccc3c(c2)CCC3)nn1-c1ccccc1 [6-J10, 2-chloro-N-[3-(2,3-dihydro-1H-inden-5-yl)-1-phenyl-1H-pyrazol-5-yl]acetamide] | 102.439% |
| O=C(CCl)NCc1ccc(Cl)c(C(F)(F)F)c1 [7-D22, 2-chloro-N-{[4-chloro-3-(trifluoromethyl)phenyl]methyl}acetamide] | 72.8414% |
| CC(C)NC(=O)C(C#N)=Cc1ccccc1 [8-L05, 2-cyano-3-phenyl-N-(propan-2-yl)prop-2-enamide] | 128.465% |
| O=C(CCl)Nc1ccccc1C(=O)NCc1ccccc1 [4-C03, N-benzyl-2-(2-chloroacetamido)benzamide] | 82.7061% |
| O=C(CCl)NCC(=O)N(c1ccccc1)c1ccccc1 [7-B12, 2-chloro-N-[(diphenylcarbamoyl)methyl]acetamide] | 97.3312% |
| C=CC(=O)N(C)CC(=O)N1CCOC(c2ccccc2Cl)C1 (centres unmarked) [2-J04, N-{2-[2-(2-chlorophenyl)morpholin-4-yl]-2-oxoethyl}-N-methylprop-2-enamide] | 110.009% |
| CCN(CC(=O)NC1CCS(=O)(=O)C1)C(=O)CCl (centres unmarked) [4-I19, 2-chloro-N-{[(1,1-dioxo-1lambda6-thiolan-3-yl)carbamoyl]methyl}-N-ethylacetamide] | 127.68% |
| CC(Cl)C(=O)N[C@@H]1CCc2c(C#N)cccc21 (stereo partly drawn) [6-P14, 2-chloro-N-[(1R)-4-cyano-2,3-dihydro-1H-inden-1-yl]propanamide] | 122.927% |
| N#CC(=Cc1ccccc1Cl)C(=O)Nc1cccc2ncccc12 [8-C15, 3-(2-chlorophenyl)-2-cyano-N-(quinolin-5-yl)prop-2-enamide] | 119.17% |
| O=C(CCl)c1ccoc1 [10-O09, 2-chloro-1-(furan-3-yl)ethan-1-one] | 115% |
| N#CC(C(=O)Nc1ccccc1)=C1NCCCN1 [8-H10, 2-cyano-2-(1,3-diazinan-2-ylidene)-N-phenylacetamide] | 108.88% |
| CC(Cl)C(=O)NCCc1cn(C)nn1 (centres unmarked) [7-A14, 2-chloro-N-[2-(1-methyl-1H-1,2,3-triazol-4-yl)ethyl]propanamide] | 95.1334% |
| Cc1ccc(N2C(=O)C=CC2=O)c([N+](=O)[O-])c1 [10-N13, 1-(4-methyl-2-nitrophenyl)-2,5-dihydro-1H-pyrrole-2,5-dione] | 82.8125% |
| C=CC(=O)NCC1CCN(S(=O)(=O)C(F)(F)F)CC1 [1-A03, N-[(1-trifluoromethanesulfonylpiperidin-4-yl)methyl]prop-2-enamide] | 117.099% |
| C=CC(=O)N(Cc1ccccc1)Cc1ccccc1 [1-P04, N,N-dibenzylprop-2-enamide] | 86.8571% |
